Experimental data taken from the supplement of paper PMC7125110.
± gives the standard error. For some assays here: Variants at the background level are over-represented here.

B1: glmS ribozyme (parent)
chain: AUAAAAGCGCCAGAACUACAGAAAUGUAGUUGACGAGGAGGAGGUUUAUCGAAUUUUCGGCGGAUGCCUCCAAA

Columns and labels:
Conditions in all cases: with glucosamine-6-phosphate
glucosamine-6-phosphate [1] = variants of: B1; assay: self-cleavage kobs at 160 uM GlcN6P; higher = faster cleavage; RNA array
Outline: (§1)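 Barcoded ribozyme variants were transcribed in situ on sequenced MiSeq chips by E. coli RNA polymerase. At 37 °C, a hybridised Cy3 probe tracked them while glucosamine-6-phosphate (40 μM to 10 mM) in HEPES/KCl/Mg(OAc)2 buffer flowed in and tiles were imaged over ~14 h. Per-tile medians of signals normalised to baseline and to non-cleaving reference variants were fit to one- or two-exponential decays, giving kobs. kcat and KM came from weighted Michaelis–Menten fits across concentrations.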

glucosamine-6-phosphate [2] = variants of: B1; assay: self-cleavage kobs at 2500 uM GlcN6P; higher = faster cleavage; RNA array
Outline: as §1

glucosamine-6-phosphate [3] = variants of: B1; assay: self-cleavage kobs at 10000 uM GlcN6P; higher = faster cleavage; RNA array
Outline: as §1

glucosamine-6-phosphate [4] = variants of: B1; assay: self-cleavage kobs at 640 uM GlcN6P; higher = faster cleavage; RNA array
Outline: as §1

| Variant | self-cleavage kobs at 160 uM GlcN6P (glucosamine-6-phosphate [1]) | self-cleavage kobs at 2500 uM GlcN6P (glucosamine-6-phosphate [2]) | self-cleavage kobs at 10000 uM GlcN6P (glucosamine-6-phosphate [3]) | self-cleavage kobs at 640 uM GlcN6P (glucosamine-6-phosphate [4]) |
| --- | --- | --- | --- | --- |
| A14U U57C G66U | < 1e-05 s⁻¹ | – | – | – |
| C11A A33U U45G C61A | < 1e-05 s⁻¹ | – | – | – |
| C11A A42G A53C | < 1e-05 s⁻¹ | – | – | – |
| G7A G13C U30C A39C | < 1e-05 s⁻¹ | < 1e-05 s⁻¹ | – | – |
| G9U C10U U54G | < 1e-05 s⁻¹ | – | – | – |
| A15C G60C C61U | < 1e-05 s⁻¹ | – | – | – |
| C8A C70G | < 1e-05 s⁻¹ | – | – | – |
| A6C A53U G62U C71G | < 1e-05 s⁻¹ | – | – | – |
| A6U C11U | < 1e-05 s⁻¹ | – | – | – |
| G29A C58U | < 1e-05 s⁻¹ | – | – | – |
| A15G G44U C71G | < 1e-05 s⁻¹ | < 1e-05 s⁻¹ | – | – |
| G13A U30G A42C | < 1e-05 s⁻¹ | < 1e-05 s⁻¹ | – | – |
| G7A U54A | < 1e-05 s⁻¹ | – | – | – |
| C8A C16U U31C G38A U56C | < 1e-05 s⁻¹ | – | < 1e-05 s⁻¹ | – |
| U31G G43A C71G | < 1e-05 s⁻¹ | – | – | – |
| U31C G43A G51A | < 1e-05 s⁻¹ | – | – | – |
| U31G A33U G38U | < 1e-05 s⁻¹ | – | – | – |
| A14G G60A G63A | < 1e-05 s⁻¹ | < 1e-05 s⁻¹ | – | – |
| G9U A12C G40A G41U G43U G63U | < 1e-05 s⁻¹ | – | – | – |
| G9U U57A C58A | < 1e-05 s⁻¹ | – | – | – |
| A15C U31G C34G G35U | < 1e-05 s⁻¹ | – | – | – |
| G29A G35C A36C | < 1e-05 s⁻¹ | – | – | – |
| C8U G35C C50U G51U C61G | < 1e-05 s⁻¹ | < 1e-05 s⁻¹ | – | – |
| A33C G41U C71G | < 1e-05 s⁻¹ | – | – | – |

| Variant | self-cleavage kobs at 160 uM GlcN6P (glucosamine-6-phosphate [1]) | self-cleavage kobs at 2500 uM GlcN6P (glucosamine-6-phosphate [2]) | self-cleavage kobs at 10000 uM GlcN6P (glucosamine-6-phosphate [3]) | self-cleavage kobs at 640 uM GlcN6P (glucosamine-6-phosphate [4]) |
| --- | --- | --- | --- | --- |
| C70U C71A | 5.23e-05 ± 9.7e-06 s⁻¹ | – | – | 0.00013 ± 1.4e-05 s⁻¹ |
| C16G A39G C58U | < 1e-05 s⁻¹ | – | – | – |
| C11G A33G G37C G44U U56C | < 1e-05 s⁻¹ | < 1e-05 s⁻¹ | – | – |
| A6U G32U G44U | < 1e-05 s⁻¹ | < 1e-05 s⁻¹ | < 1e-05 s⁻¹ | – |
| C8U U46A | < 1e-05 s⁻¹ | < 1e-05 s⁻¹ | < 1e-05 s⁻¹ | – |
| A14G A15U G38A A39U A42G A52C U69A | < 1e-05 s⁻¹ | < 1e-05 s⁻¹ | – | – |
| A12G G35U | < 1e-05 s⁻¹ | < 1e-05 s⁻¹ | < 1e-05 s⁻¹ | – |
| A14G U31G G32A G44A G51C C61U | < 1e-05 s⁻¹ | < 1e-05 s⁻¹ | – | – |
| C10U A12C A15C C68G C70G | < 1e-05 s⁻¹ | – | – | – |
| G13U G41U | < 1e-05 s⁻¹ | – | – | – |
| U31A G35C U54A A64U | < 1e-05 s⁻¹ | – | – | – |
| C16U G43U G60C | < 1e-05 s⁻¹ | < 1e-05 s⁻¹ | – | – |
| G32C U47G G62U | < 1e-05 s⁻¹ | – | – | – |
| A14C G37A C58G | < 1e-05 s⁻¹ | < 1e-05 s⁻¹ | – | – |
| C8U G40A G51C | < 1e-05 s⁻¹ | < 1e-05 s⁻¹ | – | – |
| G7A A39U G51A | < 1e-05 s⁻¹ | – | – | – |
| C8A G60A | < 1e-05 s⁻¹ | – | – | – |
| A14U G37A G38U | < 1e-05 s⁻¹ | – | – | – |
| C8U A14C G44U A48G A52C | < 1e-05 s⁻¹ | – | – | – |
| G63A G66C | < 1e-05 s⁻¹ | < 1e-05 s⁻¹ | < 1e-05 s⁻¹ | < 1e-05 s⁻¹ |
| G32C C68U | < 1e-05 s⁻¹ | – | – | – |
| G9U G51A A53G C61U | < 1e-05 s⁻¹ | – | – | – |
| G9A G38A A64G | < 1e-05 s⁻¹ | < 1e-05 s⁻¹ | – | – |
| G63A G66U C67U | – | < 1e-05 s⁻¹ | – | < 1e-05 s⁻¹ |

| Variant | self-cleavage kobs at 160 uM GlcN6P (glucosamine-6-phosphate [1]) | self-cleavage kobs at 2500 uM GlcN6P (glucosamine-6-phosphate [2]) | self-cleavage kobs at 10000 uM GlcN6P (glucosamine-6-phosphate [3]) | self-cleavage kobs at 640 uM GlcN6P (glucosamine-6-phosphate [4]) |
| --- | --- | --- | --- | --- |
| G9U A39C | < 1e-05 s⁻¹ | < 1e-05 s⁻¹ | < 1e-05 s⁻¹ | – |
| G7U A12G G32U | < 1e-05 s⁻¹ | – | – | – |
| G13A G38A | < 1e-05 s⁻¹ | – | – | – |
| C10U U54C U56G | < 1e-05 s⁻¹ | – | – | – |
| G32U G51C | < 1e-05 s⁻¹ | < 1e-05 s⁻¹ | – | – |
| G29A U65C | < 1e-05 s⁻¹ | – | – | – |
| U31C C61U C67G C70G | < 1e-05 s⁻¹ | – | – | – |
| G29C U31C A39C | < 1e-05 s⁻¹ | – | – | – |
| A6G A15C U45A G59A | < 1e-05 s⁻¹ | – | – | – |
| G9A A14U A36C U46G | < 1e-05 s⁻¹ | < 1e-05 s⁻¹ | – | – |
| C8G G35U G44A | < 1e-05 s⁻¹ | < 1e-05 s⁻¹ | – | – |
| G26U A52G | 9.82e-05 ± 2.9e-05 s⁻¹ | – | – | – |
| A6G A33G G40A U47G U54C C70U C71U | < 1e-05 s⁻¹ | – | – | – |
| U30C U54G C68A | 0.000132 ± 4.9e-05 s⁻¹ | – | – | – |
| G13C G40C A48C U55A | < 1e-05 s⁻¹ | – | – | – |
| A33G A42G C71U | < 1e-05 s⁻¹ | < 1e-05 s⁻¹ | – | – |
| G29A A39G G44A C70A | < 1e-05 s⁻¹ | – | – | – |
| G9A A12C U31A U55G | < 1e-05 s⁻¹ | – | – | – |
| A15C A48G G63U A64C | < 1e-05 s⁻¹ | – | – | – |
| G7U G66A | < 1e-05 s⁻¹ | – | < 1e-05 s⁻¹ | – |
| A6U A48C U57G | < 1e-05 s⁻¹ | – | – | – |
| C8A U46C | < 1e-05 s⁻¹ | – | – | – |
| G9A A53G | < 1e-05 s⁻¹ | – | 3.28e-05 ± 1.3e-05 s⁻¹ | – |
| A15U G41A G66C | < 1e-05 s⁻¹ | – | – | – |
